Results as given in PubChem BioAssay AID540317 (National Center for Advancing Translational Sciences (NCATS), 2011).
Among all 390,000 compounds or so, about 2,200 (0.56%) were called active. The shares of active, inactive and inconclusive entries below differ from those in the screen. The call rests on the fitted dose curve; in most records, active means well fitted inhibition curve with a large enough effect; inconclusive means small, poorly fitted or top-dose-only effect; inactive means no such curve, though single readings can be large or run the other way. Where the call is inconclusive, the potency comes from a doubtful curve fit.

biological target: Chromobox protein homolog 1 (Homo sapiens) (UniProt P83916); assay: HTS for Inhibitors of HP1-beta Chromodomain Interactions with Methylated Histone Tails; settings: AlphaScreen HP1-beta / biotin-H3K9me3 peptide binding; series mostly up to 114 µM; activity change, negative = inhibition: at the top concentration; further: nearly all actives have a fitted effect of over 70% in size
Chain of UniProt P83916 (P83916 whole entry, looked up): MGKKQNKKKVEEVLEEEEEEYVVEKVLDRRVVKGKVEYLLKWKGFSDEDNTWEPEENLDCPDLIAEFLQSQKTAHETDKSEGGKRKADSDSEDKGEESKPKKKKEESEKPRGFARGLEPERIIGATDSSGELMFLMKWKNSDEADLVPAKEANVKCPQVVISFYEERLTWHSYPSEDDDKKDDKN
How it was run: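 Compound inhibition of the preformed complex between 50 nM HP1-beta and 50 nM biotinylated H3K9me3 peptide was read by AlphaScreen. Buffer was PBS pH 7.4 with 0.01% Tween-20. Incubations ran 30 min at room temperature, with 10 ug/mL donor/acceptor beads.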
Potency means the concentration at half of the fitted maximal effect; tags describe the fitted curve by direction and shape.

| SMILES | activity change, negative = inhibition | Potency |
| --- | --- | --- |
| CNS(=O)(=O)c1ccc2c3c(cccc13)C(=O)N2 | inactive: 39.9% |  |
| COC(=O)CN1C(=S)N(c2ccc(OC)cc2)C(=O)/C1=C/c1ccc(N2CCOCC2)cc1 |  | inconclusive: 15.8 µM [inhibitor, full curve] |
| Cc1ncc(CO)c(/C=N/NC(=S)Nc2cccc(Cl)c2)c1O |  | inconclusive: 7.94 µM [inhibitor, full curve] |
| CCSc1nc2ccccc2n1C(=O)Oc1ccccc1 | inactive: 62.6% |  |
| COc1ccc(S(=O)(=O)N2CCN(C)CC2)cc1 | inactive: 25.2% |  |
| S=c1[nH]nc2sc3ccccc3n12 | inactive: -30.7% |  |
| CC(C)(C)c1ccc(-c2csc(NNC3=NCCCCC3)n2)cc1 |  | inconclusive: 17.8 µM [inhibitor, full curve] |
| COc1ccc(-c2csc3ncnc(N4CCN(c5ccccc5OC)CC4)c23)cc1 |  | inconclusive: 44.7 µM [inhibitor, partial curve, poor fit] |
| COc1cccc(OC)c1C(=O)N1CCN(Cc2ccccc2C)CC1 |  | inconclusive: 35.5 µM [inhibitor, partial curve] |
| Cc1[nH]c(=S)c(C#N)c(C)c1C(=O)Nc1ccccc1 |  | inconclusive: 70.8 µM [inhibitor, partial curve] |
| Clc1ccccc1CN1CCN(/N=C/C=C\c2ccco2)CC1 |  | active: 44.7 µM |
| O=C1C2=C(Nc3ccccc3SC2c2ccccc2C(F)(F)F)c2ccccc21 (stereo unspecified) |  | inconclusive: 17.8 µM [inhibitor, full curve] |
| COc1ccccc1CNCc1ccc(C)cc1 |  | inconclusive: 14.1 µM [inhibitor, partial curve, poor fit] |
| COc1ccc(S(=O)(=O)NCC(c2ccco2)N2CCc3ccccc32)cc1 (stereo unspecified) |  | inconclusive: 56.2 µM [inhibitor, single point] |
| CCN(CC)c1ccc([N+](=O)[O-])cc1/C=N/NC(=O)CC#N |  | inconclusive: 25.1 µM [inhibitor, single point] |
| O=C(Nc1ccccc1N1CCCCC1)C1CCN(S(=O)(=O)c2cccc(C(F)(F)F)c2)CC1 | inactive: 25.2% |  |
| COc1cccc(N2CCN(c3nc(-c4ccccc4C)cc(=O)[nH]3)CC2)c1 |  | inconclusive: 50.1 µM [inhibitor, partial curve] |
| Nc1ccc(NC2C[C@@H](C(=O)O)NC2=O)cc1 (stereo partly specified) | inactive: 35% |  |
| Nc1cc(N)nc(SCC(=O)Nc2cc(S(=O)(=O)N3CCOCC3)ccc2Cl)n1 | inactive: 12.7% |  |
| O=C(NNC(=O)c1ccncc1)Nc1ccc(N=Nc2ccccc2)cc1 |  | inconclusive: 50.1 µM [inhibitor, partial curve] |
| COc1ccc(Cl)cc1C(=O)N1CCN(Cc2ccc3c(c2)OCO3)CC1 | inactive: 26.2% |  |
| COC(=O)CCC(=O)Nc1sc(C)c(C)c1C(N)=O |  | inconclusive: 20 µM [inhibitor, full curve, poor fit] |
| OC(CN1CCOCC1)c1ccc(F)cc1 (stereo unspecified) |  | inconclusive: 25.1 µM [inhibitor, full curve] |

| SMILES | activity change, negative = inhibition | Potency |
| --- | --- | --- |
| Cc1ccc(CN=c2c([N+](=O)[O-])nn(-c3ccc(Cl)cc3)n2O)cc1 |  | inconclusive: 15.8 µM [inhibitor, full curve] |
| CC(C)(C)c1ccc2c(c1)OC(C(=O)N/N=C\c1ccc[nH]1)CO2 (stereo unspecified) |  | inconclusive: 35.5 µM [inhibitor, partial curve] |
| O=C1c2ccc(-c3ccc(F)cc3OCc3ccccc3)cc2S(=O)(=O)c2cccc(C(=O)N3CCN(c4ncc(Br)cn4)CC3)c21 | inactive: 5.81% |  |
| Cc1ccc(NC(=O)c2cccc(S(=O)(=O)N3CCc4ccccc4C3)c2)nc1 | inactive: 22.5% |  |
| Cc1ccc[n+](CC(=O)Nc2c(Cl)cc(Cl)cc2Cl)c1 | inactive: 6.53% |  |
| COc1ccc(NC(=O)COC(=O)Cc2coc3cc(OC)ccc23)c(OC)c1 |  | inconclusive: 89.1 µM [inhibitor, single point] |
| O=C(CSC1=N/C(=C/c2ccco2)C(=O)N1c1ccc(OC(F)F)cc1)NC1CCS(=O)(=O)C1 (stereo unspecified) | inactive: -13.4% |  |
| CN(C)c1ccc(C(=O)OCC(=O)Nc2ccc(S(N)(=O)=O)cc2)cc1 |  | inconclusive: 79.4 µM [inhibitor, single point] |
| CC(/C=C/c1ccc(N(C)C)cc1)=N\N=C(/N)SC1CC(=O)N(c2ccc(C(=O)O)cc2)C1=O (stereo unspecified) |  | inconclusive: 44.7 µM [inhibitor, single point] |
| COC(=O)c1cccc(C23CC4(C2)[C@H](CN(Cc2ccc(C(F)(F)F)cc2)[C@@H]4c2ccccc2)C3c2ccc(C(F)(F)F)cc2)c1 (stereo partly specified) | inactive: 3.13% |  |
| COc1ccc(NC(=S)NC(=O)c2csnn2)cc1 | inactive: 25.4% |  |
| Cc1cccc2cc(C(c3nnnn3C3CCCC3)N3CCOCC3)c(=O)[nH]c12 (stereo unspecified) | inactive: 27.5% |  |
| CCc1ccccc1NC(=O)COc1cccc(-n2cnnn2)c1 |  | inconclusive: 89.1 µM [inhibitor, partial curve, poor fit] |
| CCN(CC)S(=O)(=O)c1cccc(N=Nc2sc(N)nc2C)c1 |  | inconclusive: 17.8 µM [inhibitor, full curve] |
| c1ccc(CN2CCOCCOCCOCCOCCOCCOCC2)cc1 | inactive: 71.3% |  |
| CC(=O)Nc1ccc(S(=O)(=O)NNc2ccc([N+](=O)[O-])cc2)cc1 |  | inconclusive: 10 µM [inhibitor, full curve, poor fit] |
| CCOC(=O)c1c(C)n(C(=O)c2ccco2)c(=O)n1C(=O)c1ccco1 | inactive: 26% |  |
| O=C(NCCc1nc2ccccc2[nH]1)/C(=C/c1ccco1)NC(=O)c1ccc(Br)cc1 | inactive: 1.47% |  |
| CCc1cc(C(=O)OC)c(NC(=O)CN2CCN(C(=O)c3ccco3)CC2)s1 | inactive: 43.5% |  |
| CC(C)c1ccc(NC(=S)NN(c2ccccc2)c2ccccc2)cc1 |  | inconclusive: 25.1 µM [inhibitor, partial curve] |
| CC1CCC(NC(=O)C2CCN(S(=O)(=O)c3ccc4nc5c(c(C(=O)O)c4c3)CC(C)CC5)CC2)CC1 (stereo unspecified) | inactive: 17% |  |
| COc1ccc(CCNC(=O)CSc2ccc3nnc(CCNC(=O)c4ccc(C)cc4)n3n2)cc1OC | inactive: 25.4% |  |
| Cc1nn(-c2cccc(Cl)c2)c2c1C(c1ccncc1)C(C#N)=C(N)O2 (stereo unspecified) |  | inconclusive: 44.7 µM [inhibitor, partial curve, poor fit] |
